# Data reported in PubChem BioAssay AID2100 (National Center for Advancing Translational Sciences (NCATS), 2009).
# About 1,200 (0.4%) of roughly 300,000 compounds were called active. This list was built around the results that the source calls inconclusive (neither active nor inactive); the mix of calls is not that of the screen. The call rests on the fitted dose curve; in most records, active means well fitted inhibition curve with a large enough effect; inconclusive means small, poorly fitted or top-dose-only effect, or another doubt; inactive means no such curve, though single readings can be large or run the other way. Where the call is inconclusive, the potency comes from a doubtful curve fit.
# Molecular target: Lysosomal alpha-glucosidase (Homo sapiens) (UniProt P10253)
# Assay: qHTS Assay for Inhibitors and Activators of Human alpha-Glucosidase Cleavage of Glycogen;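 on activity change, negative = inhibition: 0% = full enzyme reaction and -100% = no-enzyme basal signal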
# Conditions: recombinant GAA, glycogen substrate, Amplex Red glucose oxidase fluorescence; activity change, negative = inhibition: at 76.4 µM (top of the series) unless noted
# How it was run: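 qHTS, 1536-well; enzyme 4 nM final; cpd up to 77 uM; substrate bovine liver glycogen 30 ug; 50 mM citrate/phosphate pH 5.0, 0.01% Tween-20; 37 C, 40 min; Amplex Red detection 45 min RT; Hill fit → AC50.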
# Potency means the concentration at half of the fitted maximal effect.
Compound,Potency,"activity change, negative = inhibition"
COc1ccc(Oc2nc(-c3ccccn3)nc3ccccc23)cc1,"inconclusive: 39.8 µM [inhibitor, partial curve]",
O=C(CCn1c(=O)c2cccn2c2cccnc21)Nc1ccccc1C(F)(F)F,,inactive: 1.51% [at 76.3 µM]
CCCC(C)n1[nH]c(=O)cc1N (centres undefined),"inconclusive: 44.7 µM [inhibitor, partial curve]",
S=c1[nH]nc(-c2cccnc2)n1/N=C/c1cccs1,"inconclusive: 35.5 µM [inhibitor, single point]",
CCN(CC)S(=O)(=O)c1cccc(C(=O)N/N=C/c2cccc(O)c2O)c1,,inactive: -4.44%
Cc1c(NC(=O)c2ccc(=O)oc2)c(=O)n(-c2ccccc2)n1C,"inconclusive: 12.5 µM [inhibitor, partial curve]",
CCc1ccccc1NC(=O)Nc1cccs1,"inconclusive: 8.91 µM [inhibitor, partial curve]",
Cc1ccc(Nc2c(-c3ccc(Br)o3)nc3ccccn23)cc1,"inconclusive: 3.16 µM [inhibitor, full curve]",
Cc1c(NC(=O)OCCNC(=O)COc2ccc(Cl)cc2Cl)sc(=S)n1C,"inconclusive: 28.2 µM [inhibitor, partial curve]",
COC(=O)CSc1nnc(-c2cccc(NC(=O)c3ccc(C)cc3)c2)n1C,"inconclusive: 125 µM [activator, partial curve, poor fit]",
Cc1ccc(NC(=S)NNC(=O)c2cn(C)nc2C)cc1,active: 28 µM,
COc1cccc(CN(C)CC(=O)Nc2ccccc2C(=O)Nc2ccccc2)c1OC,"inconclusive: 39.5 µM [inhibitor, single point]",
Cc1cc(SCC(=O)N/N=C/c2ccc(O)c(O)c2O)c(C)cc1Br,"inconclusive: 22.2 µM [inhibitor, single point]",
O=C1NN(c2cccc(Br)c2)C(=O)/C1=C\c1ccc(O)cc1,,inactive: 0.58%
CCOc1cc(C2NC(=O)NC(C)=C2C(=O)OCc2ccccc2)ccc1O (centres undefined),"inconclusive: 22.4 µM [inhibitor, partial curve]",
COc1ccc(C(O)(C(=O)NNc2ccc(C)cc2)c2cccs2)cc1 (centres undefined),active: 19.8 µM,
Cc1cccc(N2C(=O)/C(=C\c3ccc(OC(F)F)cc3)c3ccccc3C2=O)c1,"inconclusive: 35.2 µM [inhibitor, single point]",
O=C(NN=C1CCN(Cc2ccccc2)CC1)c1cc(Br)ccc1O,"inconclusive: 31.6 µM [inhibitor, partial curve]",
COc1cc(/C=N/NC(=O)CNC(=O)c2ccncc2)ccc1O,"inconclusive: 50.1 µM [inhibitor, single point]",
O=C1NCCCC2c3c(cc(Br)c(O)c3Br)OC12N1CCCCC1 (centres undefined),"inconclusive: 35.5 µM [inhibitor, single point]",
O=C(Nc1ccc(N2CCOCC2)cc1)NC1CCCCC1,"inconclusive: 15.8 µM [inhibitor, partial curve]",
NNc1nc(C(F)(F)F)nc2ccccc12,"inconclusive: 22.4 µM [inhibitor, partial curve]",

Compound,Potency,"activity change, negative = inhibition"
Cc1cc(C)nc(NN2C(=O)C=CC2=O)n1,"inconclusive: 14.1 µM [inhibitor, partial curve]",
O=C(N/N=C/C1CCCCC1)c1cc(Cl)ccc1O,active: 35.5 µM,
COc1cc(OC)c(C2CC(=O)N3CN(c4ccccc4)CSC3=C2C#N)cc1OC (centres undefined),"inconclusive: 35.5 µM [inhibitor, single point]",
O=C(NCCCl)NNc1c(Cl)cc(Cl)cc1Cl,"inconclusive: 50.1 µM [inhibitor, single point]",
Cc1ccc(N2C(=N)/C(=C3/Nc4ccccc4S3)C(c3ccccc3)C2=O)cc1 (centres undefined),"inconclusive: 28.2 µM [activator, single point]",
CCOC(=O)c1c(NC(=O)c2nc(S(C)(=O)=O)ncc2Cl)sc(C(C)=O)c1C,,inactive: -3.35% [at 76.3 µM]
COc1cccc(C2CC(=O)Nc3c2c(=O)[nH]c2nc4ccccc4n32)c1 (centres undefined),active: 39.8 µM,
COc1cc(/C=C2/C(=O)NN(c3cccc(C)c3)C2=O)ccc1OC(=O)c1ccco1,"inconclusive: 15.8 µM [inhibitor, partial curve]",
COc1cc(/C(C)=N/N2CCN(Cc3ccc(C)cc3)CC2)ccc1O,"inconclusive: 25.1 µM [inhibitor, partial curve]",
CCc1ccc(S(=O)(=O)Nc2ccc(O)c3ccccc23)cc1,"inconclusive: 14.1 µM [inhibitor, partial curve]",
CCOc1cc(/C=C2\C(=O)N(Cc3ccc(C)cc3)C(C)=C2C(=O)OC)ccc1O,active: 17.6 µM,
CCOc1cc(/C=C2\C(=O)N(Cc3ccco3)C(C)=C2C(=O)OC)ccc1O,"inconclusive: 50.1 µM [inhibitor, partial curve, poor fit]",
O=C(Nc1ccccc1-c1nc2ccccc2[nH]c1=O)c1cccs1,,inactive: -0.0999% [at 76.3 µM]
Cc1cc(C)c2c(N)c(S(=O)c3ccc(C(C)(C)C)cc3)sc2n1 (centres undefined),"inconclusive: 24.9 µM [inhibitor, partial curve]",
CN(C)c1ccc(NC2=C(Cl)C(=O)c3ccccc3C2=O)cc1,"inconclusive: 10 µM [inhibitor, full curve]",
Cc1ccn2c(NC(C)(C)C)c(-c3cccs3)nc2c1,"inconclusive: 8.84 µM [inhibitor, partial curve]",
Cc1c(NN=C(C#N)C#N)c(=O)n(-c2ccccc2)n1C,"inconclusive: 5.01 µM [inhibitor, full curve]",
C/C(=N\NC(=O)CN(c1ccc(Oc2ccccc2)cc1)S(C)(=O)=O)C(C)(C)C,"inconclusive: 10 µM [inhibitor, single point]",
O=C1OC(Nc2cc(Br)cc3cccnc23)c2ccccc21 (centres undefined),,inactive: -6.98%
CSCCOC(=O)c1[nH]c2c(c1C)C(=O)CC(c1ccco1)C2 (centres undefined),,inactive: 0.192%
COc1ccc(OC)c(S(=O)(=O)N2CCC(C(=O)NCc3ccccn3)CC2)c1,"inconclusive: 50.1 µM [inhibitor, single point]",
Cc1cc(N2CCN(C)CC2)nc2ccc(NC(=S)N3CCOCC3)cc12,"inconclusive: 14.1 µM [inhibitor, partial curve]",
